# Laboratory results taken from PubChem BioAssay AID445 (National Center for Advancing Translational Sciences (NCATS), 2006).
# In all, about 110,000 compounds went through this assay and about 40 (0.04%) were called active. This list was built around the results that the source calls inconclusive (neither active nor inactive); the mix of calls is not that of the screen. Calls follow the shape of the dose curve; as a rule, active = well fitted curve in the direction sought with a large enough effect in the signal ratio (not every such curve was filed as active); inconclusive = small, poorly fitted or top-dose-only effect, or a change in a side signal; inactive = flat fitted curve, though single readings scatter; the % refers to the signal ratio. Potencies beside an inconclusive call are fits to weak or partial responses and may not hold up.
# Experiment: IkB Signaling;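 as to IkBa stabilization activation: 0% = basal untreated cells and 100% = reference inhibitor full response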
# Conditions: ABC-DLBCL IkBa-CBG/CBR dual luciferase ratio (green luciferase fused to IkBa over red control in OCI-Ly3 lymphoma cells), 4 h; IkBa stabilization activation: at 57.1 µM (top of the series), scaled: untreated 0%, proteasome inhibitor 100% unless noted
# Procedure, shortened: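 In this assay, an IκBα–CBG68 fusion accumulates when IKK-driven degradation is blocked; native CBR normalizes for cell number. OCI-Ly3 cells were treated 4 h with compound and doxycycline, then green and red light read after Chroma-Glo addition.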
# Potency is read from the fitted curve at half-maximal effect.
Structure (SMILES),IkBa stabilization activation,Potency
Cc1cc(C)n2nc(SCC(=O)Nc3cccc(C(F)(F)F)c3)nc2n1,inconclusive: 17.3% [signal inhibitor],
Cc1ccc(S(=O)(=O)Nc2nc3ccccc3nc2NCc2ccco2)cc1,,"inconclusive: 6.31 µM [signal inhibitor, partial curve]"
COc1ccc(C(CC(=O)NCc2ccccc2)N2Cc3ccccc3C2=O)cc1 (stereo not given),inconclusive: -1.08% [signal inhibitor],
CCC(Oc1ccc(F)cc1)C(=O)Nc1nc(-c2ccc(F)cc2)ns1 (stereo not given),inconclusive: -3.53% [signal inhibitor],
CCOC(=O)c1ccc(NC(=O)CC2C(=O)N(c3cccc(OC)c3)C(=O)N2Cc2ccc(OC)cc2)cc1 (stereo not given),inconclusive: 2.66% [signal inhibitor],
COC(=O)CS(=O)(=O)c1nc2ccccc2nc1N1CCCCC1,,"inconclusive: 25.1 µM [signal inhibitor, single point]"
CC(C)CCNC(=O)Nc1ccc2c(c1)N(C)C(=O)c1ccccc1S2,inconclusive: 2.48% [signal inhibitor],
Cc1n[nH]c(C)c1S(=O)(=O)N(CC(=O)NC(C)c1ccccc1)c1ccc(C(C)C)cc1 (stereo not given),inconclusive: 0.166% [signal inhibitor],
Cc1ccc(NC(=O)Cn2c(=O)c3cc(Cl)ccc3n3nncc23)cc1,inactive: -0.223%,
COc1ccccc1N(CCC#N)C(=O)CSc1ccc2c(c1)OCCO2,inactive: 1.14%,
CC1=C(c2ccc(C)c(C)c2)S(=O)(=O)N=C1N1CCC(C(=O)NCCc2ccco2)CC1,inactive: 0.0261%,
CC(=O)NCCNc1ncnc2ccc(-c3c(C)noc3C)cc12,"inactive: 4.75% [at 11.4 µM, scaled: untreated 0%, proteasome inhibitor 100%]",
O=C(Nc1ccc2oc(Cc3ccc(Cl)cc3)nc2c1)c1cccnc1,inconclusive: 1.21% [signal inhibitor],
CC1=Nc2cc(C(=O)NC3CCCC3)ccc2Sc2ccc(C)cc21,,"inconclusive: 15.8 µM [signal activator, partial curve]"
COc1cccc(C(=O)Nc2ccccc2C(=O)OCc2cc(=O)n3c(C)csc3n2)c1,inactive: 3.66%,
Cc1nn(-c2nc(-c3ccc(F)cc3)cc(C(F)(F)F)n2)c(C)c1Br,inconclusive: 4.41% [signal inhibitor],
CC1CCC(NC(=O)CC2Oc3ccccc3NC2=O)CC1 (stereo not given),inconclusive: 15.4% [signal inhibitor],
Cn1c(SCC(=O)c2ccccc2)nnc1C1CC1,,"inconclusive: 31.6 µM [rising, single point]"
CCC(=O)Oc1ccc(C/C(=N\O)c2ccc(O)cc2O)o1,inconclusive: 0.429% [signal inhibitor],
Cc1nn(-c2ccc(F)cc2)c(-n2cccc2)c1C(=O)NCCCN1CCN(c2ccccc2F)CC1,inconclusive: -3.55% [signal inhibitor],
CCOC(=O)c1ccccc1NC(=O)Nc1cc2c(cc1N1CCCCC1)n(C)c(=O)n2C,inactive: -1.64%,
CCOc1ccc(Oc2nc(NCC(C)C)nc(NC(C)(C)C)n2)nn1,inconclusive: 3.16% [signal inhibitor],

Structure (SMILES),IkBa stabilization activation,Potency
COc1cccc(NC(=O)CCc2c(C)nc3c4cccnc4nn3c2C)c1,inconclusive: 1.46% [signal inhibitor],
COc1ccccc1OCC(=O)N(Cc1ccc(Cl)cc1)CC1CCCO1 (stereo not given),inconclusive: 0.988% [signal inhibitor],
CC(=O)c1ccc(NC(=O)CC2Nc3cccc4cccc(c34)NC2=O)cc1 (stereo not given),,inconclusive: 31.6 µM [signal inhibitor]
CSc1ccc(CCNC(=O)CCCn2nc(C)c3sc4ccccc4c3c2=O)cc1,inconclusive: 0.436% [signal inhibitor],
CCc1cccc(NC(=O)CCS(=O)(=O)c2cc(Br)cc3c2N(C(C)=O)CC3)c1,inconclusive: 1.26% [signal inhibitor],
O=C(CSc1nc2ccccc2nc1Cc1ccccc1)N1CCCCC1,inconclusive: 3.41% [signal inhibitor],
O=C(NCc1ccccc1Cl)c1cc2ccccc2o1,,"inconclusive: 20 µM [signal inhibitor, single point]"
COc1cc(-c2nc3ncccn3c2Nc2ccc(C)cc2C)ccc1O,inconclusive: -0.101% [signal inhibitor],
O=C(CSc1nnc(-c2cccnc2)n1Cc1ccco1)Nc1nc(-c2ccc(F)cc2)cs1,,"inconclusive: 31.6 µM [signal inhibitor, single point]"
CCOc1ccccc1NC(=O)N1CCN(Cc2nc3ccc(C)cc3o2)CC1,inconclusive: 1.47% [signal inhibitor],
COc1cc(C(=O)Nc2ccc(S(=O)(=O)N3CCCCC3C)cc2)cc(OC)c1OC (stereo not given),inconclusive: 15.8% [signal inhibitor],
COc1ccc(-c2nnc3sc(CN4C(=O)c5ccccc5C4=O)nn23)cc1,inactive: -2.16%,
CCOc1ccccc1NC(=O)Cn1cnc2sc(C)c(S(=O)(=O)N3CCC(C)CC3)c2c1=O,inconclusive: 4.73% [signal inhibitor],
CCCCOc1cccc(C(=O)Nc2ccc3oc(-c4cccnc4)nc3c2)c1,,"inconclusive: 12.6 µM [signal inhibitor, partial curve]"
COc1ccc(N2CCN(C(=O)CCc3c(C)nc4cc(-c5ccc(Cl)cc5)nn4c3C)CC2)cc1,,"inconclusive: 0.794 µM [signal inhibitor, partial curve]"
CCOc1ccc(NCc2cccn2-c2nnc(N3CCC(C(=O)NCCc4ccc(OC)c(OC)c4)CC3)s2)cc1,inconclusive: -0.912% [signal inhibitor],
CCOC(=O)[C@H](CCc1ccccc1)N[C@@H](C)C(=O)N1[C@H](C(=O)O)C[C@H]2CCC[C@@H]21,"inactive: -1.22% [at 25.6 µM, scaled: untreated 0%, proteasome inhibitor 100%]",
Cc1ccccc1CNC(=O)C(=O)NCC(c1ccco1)S(=O)(=O)c1ccccc1 (stereo not given),inconclusive: 0.35% [signal inhibitor],
CCCS(=O)(=O)N1CCCC(C(=O)NCCCOC)C1 (stereo not given),inconclusive: -2.05% [signal inhibitor],
Cc1ccc2[nH]c(CSc3nnc(NC(=O)c4ccccc4C)s3)cc(=O)c2c1,inconclusive: 2.59% [signal inhibitor],
COc1ccccc1N(CC(=O)Nc1ccc(C)c(Cl)c1)S(=O)(=O)c1ccc(C)cc1,,"inconclusive: 15.8 µM [signal inhibitor, partial curve]"
C#CC(C)(CC)NC(=O)c1cc2c(n(-c3ccc(Cl)cc3)c1=O)CC(C)(C)CC2=O (stereo not given),inconclusive: -0.183% [signal inhibitor],

Structure (SMILES),IkBa stabilization activation,Potency
COCCn1c(C)cc(O)c(C(c2ccc(C)cc2)N2CCCCC2)c1=O (stereo not given),inactive: -0.028%,
CC(=O)N1CCc2cc(Br)cc(S(=O)(=O)N3CCN(c4cc(C)ccc4C)CC3)c21,inconclusive: 7.29% [signal inhibitor],
CC(=O)N1c2ccccc2C(=O)C1N1CCN(c2cccc(C(F)(F)F)c2)CC1 (stereo not given),inconclusive: 0.492% [signal inhibitor],
Cc1ccccc1OCC(=O)N(Cc1ccc(N(C)C)cc1)CC1CCCO1 (stereo not given),inconclusive: 3.09% [signal inhibitor],
Cc1cccc(CNC(=O)CCCN2C(=O)CCn3nc(-c4cn(C)c5ccccc45)cc32)c1,inconclusive: 0.839% [signal inhibitor],
CCN1CCN(c2c(S(=O)(=O)c3ccccc3)cnc3ccc(Cl)cc23)CC1,inconclusive: -0.288% [signal inhibitor],
CCCc1cc(C(=O)Nc2cccc(Cl)c2)no1,,"inconclusive: 25.1 µM [signal inhibitor, partial curve]"
CC(C)(C)c1ccc(S(=O)(=O)N2CCN(CCC#N)CC2)cc1,inactive: -0.782%,
Cc1ccc(S(=O)(=O)NC(=O)c2cc(C)n(CCCn3ccnc3)c2C)cc1,inactive: 0.000237%,
CCN(CC)c1nn2c(=O)c(C(=O)NCc3cccc(C)c3)cnc2s1,inactive: -3.2%,
COc1ccc(-c2coc3ccc(O[C@@H]4O[C@@H](COC(C)=O)[C@@H](OC(C)=O)[C@@H](OC(C)=O)[C@H]4OC(C)=O)c(OC(C)=O)c3c2=O)cc1,"inactive: -0.182% [at 11.4 µM, scaled: untreated 0%, proteasome inhibitor 100%]",
Cn1nc(-c2ccccc2F)c2cc(C(=O)N3CCN(c4ccc(F)cc4)CC3)sc21,inconclusive: 1.45% [signal inhibitor],
O=C(OCCOc1ccccc1Cl)c1ccc(-n2cnnn2)cc1,inconclusive: 1.69% [signal inhibitor],
CCC(C)NC(=O)Cn1c(=O)n(Cc2ccc(C(=O)NCc3ccccc3OC)cc2)c(=O)c2ccccc21 (stereo not given),inactive: 0.41%,
Cc1nn(C(=O)c2cccc(F)c2)c(C)c1S(=O)(=O)N1CCCCCC1,inconclusive: -1.7% [signal inhibitor],
Cc1ccc(C)c(NC(=O)CSc2nc(=O)n(Cc3ccccn3)c3c2CCC3)c1,inconclusive: 1.37% [signal inhibitor],
Cc1cccc(N2CCN(S(=O)(=O)c3ccc(F)c(C(=O)Nc4ccc(C(C)C)cc4)c3)CC2)c1C,inconclusive: 0.433% [signal inhibitor],
NCCc1ccc(O)c(O)c1,inactive: -1.03%,
Cc1cc(C)cc(NS(=O)(=O)c2ccc3[nH]cc(C(=O)N4CCCCCC4)c(=O)c3c2)c1,inconclusive: -0.638% [signal inhibitor],
COc1ccc(OC)c(Nc2ncnc3c2cnn3-c2ccc(C)cc2)c1,inconclusive: 0.552% [signal inhibitor],
Cc1c(NC(=O)c2cc(-c3ccc(O)cc3)on2)c(=O)n(-c2ccccc2)n1C,inconclusive: -0.46% [signal inhibitor],
